According to PubChem BioAssay AID686979 (National Center for Advancing Translational Sciences (NCATS), 2013):
In all, about 420,000 compounds went through this assay and about 50,000 (12%) were called active. The inconclusive results got no clear call from the source; some entries with a clear call stand among them for comparison. Calls come from the whole dose curve; as a rule, active = well fitted inhibition curve with a large enough effect; inconclusive = small, poorly fitted or top-dose-only effect; inactive = flat fitted curve, though single readings scatter. Potencies of inconclusive entries are left out as doubtful fits.

Assay: qHTS for Inhibitors of human tyrosyl-DNA phosphodiesterase 1 (TDP1): qHTS in cells in presence of CPT; note: nearly all actives have a fitted effect of over 55% in size
Details: chicken DT40 Tdp1-/-;hTDP1 cells + 20 nM CPT, ATP luminescence, 48 h; activity change, negative = growth inhibition: at 46.2 µM (top of the series) unless noted
Summary of the method: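 Chicken DT40 Tdp1-/- cells complemented with human TDP1, 400 cells/well, exposed to compounds plus 20 nM camptothecin for at least 48 h at 37 C; viability read as ATP content by CellTiter-Glo luminescence.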
% is set by controls: 0 for no effect and ±100 for the full control effect; potency is the fitted concentration of half-maximal effect; tags give direction and shape of the fitted curve.

SMILES	Potency	activity change, negative = growth inhibition
COc1ccc(COC(=O)c2cc([N+](=O)[O-])ccc2N2CCOCC2)cc1F	active: 0.0231 µM	–
COc1ccc(Cl)cc1NC(=O)C[n+]1cccc(C)c1	–	inactive: -2.86%
O=C(NCCc1ccc(Cl)cc1)C(=O)Nc1cc2c3c(c1)CC(=O)N3CCC2	inconclusive [inhibitor, single point]	–
O=C(CC[C@H]1O[C@@H](n2ccc(=O)[nH]c2=O)[C@H](O)[C@@H]1O)N[C@H](Cc1ccccc1)C(=O)NCCCc1ccccc1	–	inactive: -6.68%
CC(=O)c1c(C)[nH]c(C(=O)OCc2ccc(F)cc2Cl)c1C	active: 14.6 µM	–
O=C(Nc1cc(Cl)ccc1-n1cncn1)c1ccc([N+](=O)[O-])s1	active: 7.31 µM	–
O=C(NC1CCCCC1)c1ccccc1NC(=O)C1CC(=O)N(c2ccc(Cl)cc2)C1 (stereo not drawn)	inconclusive [inhibitor, partial curve, poor fit]	–
Cc1cc(-n2c(C)cc(C(=O)CSc3ccc4c(c3)OCCO4)c2C)no1	inconclusive [inhibitor, single point]	–
CCOC(=O)c1ccc(Nc2cc3ccccc3c(=O)[nH]2)cc1	inconclusive [inhibitor, single point]	–
O=C(NCCSCc1ccco1)Nc1cccc(Cl)c1	inconclusive [inhibitor, single point]	–
Cc1ccc(Cn2cc(CCC(=O)NC3CCCCC3)c3ccccc32)cc1	inconclusive [inhibitor, single point]	–
CCC(=O)c1ccc(OCC(=O)Nc2ccc3nc(C)sc3c2)cc1	active: 16.4 µM	–
Cc1c(CNCCCc2ccccc2)c(C(=O)O)c(C)n1Cc1ccc(Cl)cc1	inconclusive [inhibitor, single point]	–
OCC(O)/C=N/Nc1nc(Nc2ccccc2)nc(Nc2ccccc2)n1 (stereo not drawn)	inconclusive [inhibitor, single point]	–
COc1cccc(CNCCOCCO)c1OC	–	inactive: 8.52%
Cc1cnc(CNc2ncncc2-c2ccccc2Cl)cn1	–	inactive: -18.5%
CC1CCCN(S(=O)(=O)c2ccc(S(=O)(=O)NC(C)c3cccs3)cc2)C1 (stereo not drawn)	inconclusive [inhibitor, partial curve]	–
Cc1c(Cl)cccc1N1CC(c2nc3ccccc3n2Cc2ccccc2F)CC1=O (stereo not drawn)	inconclusive [inhibitor, single point]	–
Oc1ccccc1-c1nc(/C=C/c2ccc(F)cc2)no1	inconclusive [inhibitor, partial curve, poor fit]	–
CN(CC1CCCO1)S(=O)(=O)c1ccc(C(=O)NCc2ccccc2)cc1 (stereo not drawn)	inconclusive [inhibitor, full curve, poor fit]	–
CC(=O)N1c2c(ccc3ccccc23)C(C)CC12CCCCC2 (stereo not drawn)	inconclusive [inhibitor, single point]	–
Cc1ccccc1NC(=O)Nc1nnc(N(C)Cc2ccccc2)s1	inconclusive [inhibitor, single point]	–

SMILES	Potency	activity change, negative = growth inhibition
Cc1cccc(N2CCN(C(=O)Nc3ccc(F)cc3)CC2C)c1 (stereo not drawn)	inconclusive [inhibitor, partial curve]	–
CN1CCN(c2ccc(S(=O)(=O)N3CCOCC3)cc2NC(=O)CC(C)(C)C)CC1	–	inconclusive: -16.3% [inhibitor]
CC1CCCN(S(=O)(=O)c2ccc(NC(=O)C3CCN(C(=O)C(C)(C)C)CC3)cc2)C1 (stereo not drawn)	inconclusive [inhibitor, single point]	–
Cc1cc(OCC(=O)NCCCN2CCCC2=O)c2c(C)cc(=O)oc2c1	–	inactive: 5.23%
COc1ccccc1NS(=O)(=O)c1cc(N/C(=N\S(=O)(=O)c2ccccc2)c2ccc(F)cc2)ccc1Cl	active: 18.4 µM	–
CCOc1ccc(NC(=O)N2CCN(S(C)(=O)=O)CC2)cc1	inconclusive [inhibitor, single point]	–
O=[N+]([O-])c1ccc(CN2CCN(c3ccc([N+](=O)[O-])cc3)CC2)cc1	inconclusive [inhibitor, single point]	–
COc1ccc(N(CC(=O)Nc2cccc(N(C)S(C)(=O)=O)c2)S(=O)(=O)c2ccc(C)cc2)cc1	inconclusive [inhibitor, partial curve]	–
COCCCN(C(=O)CSCC(=O)Nc1ccc(C)cc1)c1c(N)n(Cc2ccccc2)c(=O)[nH]c1=O	–	inactive: 25.8%
CCS(=O)(=O)c1c(Nc2ccc(F)c(Cl)c2)sc(C(=O)c2ccccc2)c1N	–	inactive: -18.7%
CCCc1n[nH]c2c1C(=O)CC(C)(C)C2	–	inactive: -7.22%
O=C(NCc1ccccc1)C1=C[C@@H](c2ccccc2)C[C@@H](OCc2ccc(CO)cc2)O1	inconclusive [inhibitor, single point]	–
CCc1nc2ccc(C(=O)NCc3ccc4c(c3)OCO4)cn2c1N(CC)Cc1cccc(Br)c1	inconclusive [inhibitor, single point]	–
CCCn1cc(SCC(=O)Nc2nnc(C)s2)c2ccccc21	inconclusive [inhibitor, single point]	–
CC(=O)Nc1ccc(OCCCN2CCC(C(O)(c3ccccc3)c3ccccc3)CC2)cc1	inconclusive [inhibitor, single point]	–
O=c1[nH]c2c(s1)C(c1ccccc1)C1C3CCC(C3)C1S2 (stereo not drawn)	inconclusive [inhibitor, partial curve, poor fit]	–
COc1ccc(CCN2C(=O)CC(NCCc3ccc(S(N)(=O)=O)cc3)C2=O)cc1OC (stereo not drawn)	–	inactive: -19%
Cc1cccc(NC(=O)Cn2c(=O)n(Cc3ccc4c(c3)OCO4)c(=O)c3ccccc32)c1	inconclusive [inhibitor, single point]	–
O=C(NCc1ccccn1)c1cc(S(=O)(=O)N2CCCCC2)ccc1Cl	inconclusive [inhibitor, single point]	–
CC(C)C1N(C(=O)N2CCOCC2)CCN1S(=O)(=O)c1ccccc1 (stereo not drawn)	–	inactive: -1.67%
COc1ccc(-c2sc3ccccc3c2C#CC2(O)CCCCC2)cc1	inconclusive [inhibitor, single point]	–
